{"source": "the supplement of paper PMC8728848", "binders": {"B1": {"name": "SAOUHSC 00176 (Staphylococcus aureus) (protein)", "chain": "MSKILKCITLAVVMLLIVTACGPNRSKEDIDKALNKDNSKDKPNQLTMWVDGDKQMAFYKKITDQYTKKTGIKVKLVNIGQNDQLENISLDAPAGKGPDIFFLAHDNTGSAYLQGLAAEIKLSKDELKGFNKQALKAMNYDNKQLALPAIVETTALFYNKKLVKNAPQTLEEVEANAAKLTDSKKKQYGMLFDAKNFYFNYPFLFGNDDYIFKKNGSEYDIHQLGLNSKHVVKNAERLQKWYDKGYLPKAATHDVMIGLFKEGKVGQFVTGPWNINEYQETFGKDLGVTTLPTDGGKPMKPFLGVRGWYLSEYSKHKYWAKDLMLYITSKDTLQKYTDEMSEITGRVDVKSSNPNLKVFEKQARHAEPMPNIPEMRQVWEPMGNASIFISNGKNPKQALDEATNDITQNIKILHPSQNDKKGD"}}, "test_in_all_cases": "glycan array binding signal (z-score within array); higher = stronger binding", "details_in_all_cases": "glycan notation: IUPAC condensed, linker removed", "key": {"[1]": {"molecular_target": "Neu5Ac(a2-6)GlcNAc(b1-4)GlcNAc(b1-4)GlcNAc", "outline": "(§1)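 The Consortium for Functional Glycomics database supplied 3228 glycan arrays, of which those lacking an available protein sequence were dropped. The binding signal, a within-array Z-score, was averaged across arrays of the same protein sequence and across linkers. Negative scores can be read as non-binding.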"}, "Neu5Ac(a2-8)Neu5Ac": {"molecular_target": "Neu5Ac(a2-8)Neu5Ac", "outline": "as §1"}, "[2]": {"molecular_target": "Neu5Ac(a2-8)Neu5Ac(a2-3)Gal(b1-3)GalNAc(b1-4)[Neu5Ac(a2-3)]Gal(b1-4)Glc", "outline": "as §1"}, "[3]": {"molecular_target": "Neu5Ac(a2-8)Neu5Ac(a2-3)Gal(b1-3)GalNAc(b1-4)[Neu5Ac(a2-8)Neu5Ac(a2-3)]Gal(b1-4)Glc", "outline": "as §1"}, "[4]": {"molecular_target": "Neu5Ac(a2-8)Neu5Ac(a2-3)Gal(b1-4)Glc", "outline": "as §1"}, "[5]": {"molecular_target": "Neu5Ac(a2-8)Neu5Ac(a2-3)Gal(b1-4)GlcNAc", "outline": "as §1"}, "[6]": {"molecular_target": "Neu5Ac(a2-8)Neu5Ac(a2-3)[Gal(b1-3)GalNAc(b1-4)]Gal(b1-4)Glc", "outline": "as §1"}, "[7]": {"molecular_target": "Neu5Ac(a2-8)Neu5Ac(a2-3)[GalNAc(b1-4)]Gal(b1-4)Glc", "outline": "as §1"}, "[8]": {"molecular_target": "Neu5Ac(a2-8)Neu5Ac(a2-8)Neu5Ac", "outline": "as §1"}, "[9]": {"molecular_target": "Neu5Ac(a2-8)Neu5Ac(a2-8)Neu5Ac(a2-3)Gal(b1-4)Glc", "outline": "as §1"}, "[10]": {"molecular_target": "Neu5Ac(a2-8)Neu5Ac(a2-8)Neu5Ac(a2-3)[Gal(b1-3)GalNAc(b1-4)]Gal(b1-4)Glc", "outline": "as §1"}, "[11]": {"molecular_target": "Neu5Ac(a2-8)Neu5Ac(a2-8)Neu5Ac(a2-3)[GalNAc(b1-4)]Gal(b1-4)Glc", "outline": "as §1"}, "[12]": {"molecular_target": "Neu5Ac(a2-8)Neu5Ac(a2-8)Neu5Ac(a2-8)Neu5Ac(a2-3)[GalNAc(b1-4)]Gal(b1-4)Glc", "outline": "as §1"}, "[13]": {"molecular_target": "Neu5Ac(a2-8)Neu5Gc(a2-3)Gal(b1-4)GlcNAc", "outline": "as §1"}, "[14]": {"molecular_target": "Neu5Ac(b2-6)Gal(b1-4)GlcNAc", "outline": "as §1"}, "Neu5Ac(b2-6)GalNAc": {"molecular_target": "Neu5Ac(b2-6)GalNAc", "outline": "as §1"}, "[15]": {"molecular_target": "Neu5Ac9Ac(a2-3)Gal(b1-3)GlcNAc", "outline": "as §1"}, "[16]": {"molecular_target": "Neu5Ac9Ac(a2-3)Gal(b1-4)GlcNAc", "outline": "as §1"}, "[17]": {"molecular_target": "Neu5Ac9Ac(a2-6)Gal(b1-4)GlcNAc", "outline": "as §1"}, "[18]": {"molecular_target": "Neu5Gc(a2-3)Gal(b1-3)GlcNAc", "outline": "as §1"}, "[19]": {"molecular_target": "Neu5Gc(a2-3)Gal(b1-3)[Fuc(a1-4)]GlcNAc", "outline": "as §1"}, "Neu5Gc(a2-3)Gal(b1-4)Glc": {"molecular_target": "Neu5Gc(a2-3)Gal(b1-4)Glc", "outline": "as §1"}, "[20]": {"molecular_target": "Neu5Gc(a2-3)Gal(b1-4)GlcNAc", "outline": "as §1"}, "[21]": {"molecular_target": "Neu5Gc(a2-3)Gal(b1-4)GlcNAc(b1-3)Gal(b1-4)GlcNAc(b1-2)Man(a1-3)[Neu5Gc(a2-3)Gal(b1-4)GlcNAc(b1-3)Gal(b1-4)GlcNAc(b1-2)Man(a1-6)]Man(b1-4)GlcNAc(b1-4)GlcNAc", "outline": "as §1"}, "[22]": {"molecular_target": "Neu5Gc(a2-3)Gal(b1-4)[Fuc(a1-3)]GlcNAc", "outline": "as §1"}, "[23]": {"molecular_target": "Neu5Gc(a2-6)Gal(b1-4)GlcNAc", "outline": "as §1"}, "Neu5Gc(a2-6)GalNAc": {"molecular_target": "Neu5Gc(a2-6)GalNAc", "outline": "as §1"}, "[24]": {"molecular_target": "Neu5Gc(a2-8)Neu5Ac(a2-3)Gal(b1-4)GlcNAc", "outline": "as §1"}, "[25]": {"molecular_target": "Neu5Gc(a2-8)Neu5Gc(a2-3)Gal(b1-4)GlcNAc", "outline": "as §1"}, "[26]": {"molecular_target": "Neu5Gc(a2-8)Neu5Gc(a2-3)Gal(b1-4)GlcNAc(b1-3)Gal(b1-4)GlcNAc", "outline": "as §1"}, "[27]": {"molecular_target": "Neu5Gc(a2-8)Neu5Gc(a2-6)Gal(b1-4)GlcNAc", "outline": "as §1"}, "[28]": {"molecular_target": "Neu5Gc(b2-6)Gal(b1-4)GlcNAc", "outline": "as §1"}}, "note": "The other results are listed elsewhere or left out.", "data": [{"binder": "B1", "values": [{"measurement": "glycan array binding signal (z-score)", "setting": "[1]", "value": 2.56}, {"measurement": "glycan array binding signal (z-score)", "setting": "Neu5Ac(a2-8)Neu5Ac", "value": -0.022}, {"measurement": "glycan array binding signal (z-score)", "setting": "[2]", "value": 0.025}, {"measurement": "glycan array binding signal (z-score)", "setting": "[3]", "value": 0.399}, {"measurement": "glycan array binding signal (z-score)", "setting": "[4]", "value": -0.097}, {"measurement": "glycan array binding signal (z-score)", "setting": "[5]", "value": 0.287}, {"measurement": "glycan array binding signal (z-score)", "setting": "[6]", "value": -0.114}, {"measurement": "glycan array binding signal (z-score)", "setting": "[7]", "value": -0.202}, {"measurement": "glycan array binding signal (z-score)", "setting": "[8]", "value": -0.055}, {"measurement": "glycan array binding signal (z-score)", "setting": "[9]", "value": 0.005}, {"measurement": "glycan array binding signal (z-score)", "setting": "[10]", "value": -0.098}, {"measurement": "glycan array binding signal (z-score)", "setting": "[11]", "value": -0.207}, {"measurement": "glycan array binding signal (z-score)", "setting": "[12]", "value": 0.007}, {"measurement": "glycan array binding signal (z-score)", "setting": "[13]", "value": -0.191}, {"measurement": "glycan array binding signal (z-score)", "setting": "[14]", "value": -0.11}, {"measurement": "glycan array binding signal (z-score)", "setting": "Neu5Ac(b2-6)GalNAc", "value": -0.045}, {"measurement": "glycan array binding signal (z-score)", "setting": "[15]", "value": -0.096}, {"measurement": "glycan array binding signal (z-score)", "setting": "[16]", "value": 0.096}, {"measurement": "glycan array binding signal (z-score)", "setting": "[17]", "value": 0.029}, {"measurement": "glycan array binding signal (z-score)", "setting": "[18]", "value": -0.053}, {"measurement": "glycan array binding signal (z-score)", "setting": "[19]", "value": -0.133}, {"measurement": "glycan array binding signal (z-score)", "setting": "Neu5Gc(a2-3)Gal(b1-4)Glc", "value": -0.048}, {"measurement": "glycan array binding signal (z-score)", "setting": "[20]", "value": -0.058}, {"measurement": "glycan array binding signal (z-score)", "setting": "[21]", "value": 0.091}, {"measurement": "glycan array binding signal (z-score)", "setting": "[22]", "value": 0.044}, {"measurement": "glycan array binding signal (z-score)", "setting": "[23]", "value": -0.015}, {"measurement": "glycan array binding signal (z-score)", "setting": "Neu5Gc(a2-6)GalNAc", "value": -0.029}, {"measurement": "glycan array binding signal (z-score)", "setting": "[24]", "value": -0.09}, {"measurement": "glycan array binding signal (z-score)", "setting": "[25]", "value": -0.059}, {"measurement": "glycan array binding signal (z-score)", "setting": "[26]", "value": -0.088}, {"measurement": "glycan array binding signal (z-score)", "setting": "[27]", "value": -0.066}, {"measurement": "glycan array binding signal (z-score)", "setting": "[28]", "value": -0.083}]}]}
